Measurements as given in the supplement of paper PMC3334620.
Whole data set: some 33,000 sequences, median “E-score (-0.5 to 0.5)” near -0.011, cut for the highest 2% near 0.28. The list shows a part of the results.

molecular target: T1, Gcr1 (UniProt P07261); experiment: PBM E-score (8-mer binding enrichment) (E-score (-0.5 to 0.5)); higher = stronger / more preferred TF binding; most listed sequences are background and not binding sites; details: protein concentration: 100 nM; construct: GST-full length
T1 sequence: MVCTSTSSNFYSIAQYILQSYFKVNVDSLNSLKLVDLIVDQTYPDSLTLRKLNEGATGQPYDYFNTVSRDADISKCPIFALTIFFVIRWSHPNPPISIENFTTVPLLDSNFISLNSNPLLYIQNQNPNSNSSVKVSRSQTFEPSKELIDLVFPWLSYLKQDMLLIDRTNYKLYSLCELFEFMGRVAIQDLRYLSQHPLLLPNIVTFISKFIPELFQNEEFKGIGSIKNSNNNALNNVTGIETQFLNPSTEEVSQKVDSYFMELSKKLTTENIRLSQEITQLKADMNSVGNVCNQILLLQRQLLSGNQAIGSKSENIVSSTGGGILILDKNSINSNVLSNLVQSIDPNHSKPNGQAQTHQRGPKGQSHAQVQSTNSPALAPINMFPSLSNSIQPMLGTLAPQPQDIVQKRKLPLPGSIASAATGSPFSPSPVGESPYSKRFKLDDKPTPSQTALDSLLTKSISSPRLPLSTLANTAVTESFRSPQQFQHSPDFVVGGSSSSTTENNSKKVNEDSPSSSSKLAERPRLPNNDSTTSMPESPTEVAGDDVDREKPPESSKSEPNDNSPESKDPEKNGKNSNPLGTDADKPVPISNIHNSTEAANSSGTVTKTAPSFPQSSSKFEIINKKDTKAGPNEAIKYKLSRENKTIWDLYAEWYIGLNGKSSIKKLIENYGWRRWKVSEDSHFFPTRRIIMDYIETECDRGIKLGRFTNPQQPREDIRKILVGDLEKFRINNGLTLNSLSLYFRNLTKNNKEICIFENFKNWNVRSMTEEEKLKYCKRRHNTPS
Method in brief: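 Each ungapped eight-base word and its reverse complement, pooled, received an E-score from the Universal PBM Analysis Suite. Underlying scans, normalised with masliner, recorded fluorescent anti-GST bound to GST-tagged yeast transcription factors. These were applied at about 100-200 nM to universal all-10-mer Agilent arrays double-stranded by primer extension.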

Row | Sequence | PBM E-score
1 | CAAACGAC | -0.0182
2 | GTCAGACA | -0.0473
3 | ATGCGGCC | 0.0413
4 | CATACGCG | 0.0103
5 | GCCATGAA | 0.102
6 | CCCTTGCA | -0.097
7 | GGAGACGA | 0.214
8 | ACACGGCT | -0.0357
9 | AATTGCTG | 0.0531
10 | ATACCAAC | -0.00844
11 | CACCAGAA | 0.15
12 | TCCTAAAA | 0.27
13 | GATGACGA | -0.098
14 | AGGACACA | 0.0847
15 | CTTCCGAA | 0.13
16 | CCAGGCGA | -0.0243
17 | ATCAGCTG | 0.197
18 | GATCGTTA | -0.241
19 | CCAATGAC | -0.0459
20 | CGGCCACC | -0.0747
21 | GCATCGAC | -0.0357
22 | TAACCCCA | -0.0703
23 | CATAAAGC | 0.195
24 | GGGTTATA | -0.0602
25 | ATACACAG | 0.115

Row | Sequence | PBM E-score
26 | CGGGTATC | 0.131
27 | GCGGTCGA | 0.0164
28 | TGGGGCAA | 0.0111
29 | AGGAATAC | 0.0815
30 | CTAGAAGA | 0.197
31 | AAGCTCCA | 0.145
32 | ACCGGCCC | -0.297
33 | TTAGGAAA | 0.0493
34 | CATTCCAA | 0.0418
35 | CGCCAGAA | 0.13
36 | ATACGGCG | 0.0898
37 | AATTTCGC | 0.181
38 | ATAGCATC | 0.0848
39 | GATCCGGA | 0.226
40 | ATATTTAG | 0.115
41 | AGTCATGC | -0.201
42 | CCCACGTA | 0.0365
43 | CCGGCCGC | 0.099
44 | CCGTACGA | -0.0864
45 | GAAAATCA | -0.0746
46 | CAGGACAA | 0.0779
47 | CTCTAGGA | -0.114
48 | CTGAAATC | 0.0723
49 | AAAAAAGG | 0.184
50 | AATTGTAT | 0.095

Row | Sequence | PBM E-score
51 | CACTTCCC | 0.0585
52 | ATTTTGGA | 0.282
53 | TGTCAAAA | 0.00985
54 | ACAGTGTC | -0.0941
55 | AGGAAATA | 0.00913
56 | ACACTCAG | -0.129
57 | CTTCACCA | -0.154
58 | GTTGTGTA | -4e-05
59 | ACTGAATC | 0.0927
60 | GAGTCGTA | -0.113
61 | GGCCCGTA | -0.0201
62 | AATTCTAT | 0.0304
63 | CCTTTGCG | -0.123
64 | AGGAATCA | 0.144
65 | AGCCCTGA | -0.228
66 | AGTACTGC | -0.205
67 | ATGTGCTG | -0.038
68 | GTCTGTGA | -0.0354
69 | AGGAACCA | 0.203
70 | CTTGTATA | -0.006
71 | CCACCCCC | -0.156
72 | CAAGAAAG | -0.0416
73 | CCAATCAC | -0.0358
74 | TCTAACAA | 0.0322
75 | TCCCGGCA | -0.0871

Row | Sequence | PBM E-score
76 | CGATGAGA | -0.0556
77 | AGGGTAAC | -0.118
78 | AGATGTAC | -0.164
79 | ATTATCAG | 0.0753
80 | CCTGCAAC | -0.0292
81 | ATACAGGC | 0.223
82 | ATTAAATA | 0.21
83 | GCAGATGA | -0.0166
84 | ACCAAGGC | -0.0138
85 | CAAACCGG | 0.0689
86 | CGCAAACG | 0.145
87 | CGGCGCTA | -0.00295
88 | GTATAGAC | 0.0183
89 | AGCAGGTA | 0.0745
90 | CCTATGTA | -0.183
91 | CGATTCAA | -0.0533
92 | CTTGATCA | -0.0381
93 | CAGACCGA | 0.00453
94 | ACGAATCT | 0.122
95 | GCCACAAA | 0.0996
96 | ACGGTAAC | -0.0407
97 | AAGGTCCC | -0.00274
98 | AGGATATC | -0.0349
99 | ATAGTCAC | -0.204
100 | AGTGTCCG | -0.0321

Row | Sequence | PBM E-score
101 | ATCCGGGA | 0.151
102 | GCTCTGAA | -0.0275
103 | CTCTACAC | -0.0944
104 | AGACGAAC | 0.105
105 | ACCAGGTC | 0.0582
106 | GGGCTCAC | -0.096
107 | CATGTGGA | 0.00355
108 | ATCACACC | -0.00785
109 | AATGTCAA | -0.0693
110 | AGACAACC | -0.0455
111 | CAGTTTTC | 0.0118
112 | AGCCTGAG | -0.0534
113 | AAAACAGG | 0.28
114 | CAGTCAAC | -0.123
115 | ATGCACAG | -0.166
116 | AGGACGTA | -0.146
117 | GGTCGGAA | -0.101
118 | ACTTGCTA | -0.0796
119 | GTAAGTGA | -0.183
120 | CGATATGA | -0.00906
121 | CCCATCGA | -0.0692
122 | CGATACCG | -0.159
123 | AAGTAGGA | 0.017
124 | ACAGGTTC | -0.00159
125 | TATGCAGA | 0.0306

Row | Sequence | PBM E-score
126 | GGGCTCTA | -0.034
127 | AGCAGCCC | 0.2
128 | ACATAAAG | -0.021
129 | CATTAAGA | 0.00605
130 | AATTACTA | 0.149
131 | CATATTAC | 0.146
132 | ACCCCCGT | -0.113
133 | CCTTACGC | -0.188
134 | AATTGCTA | 0.0117
135 | CTCCTCCC | -0.131
136 | ATTCTGGG | 0.144
137 | CCCGCGGA | 0.0135
138 | AAACCAAG | 0.0081
139 | GACAGCTA | -0.113
140 | ATGAGTCG | -0.178
141 | AATGCTGG | -0.12
142 | AGACTCGC | -0.263
143 | ACGGGGCA | -0.0662
144 | GCTGAAAC | 0.134
145 | CATACTCC | -0.0342
146 | AGTTGCTG | 0.223
147 | CGCATAAG | -0.178
148 | AAGATACG | 0.211
149 | GCGAACGA | -0.0288
150 | CTTCTGCA | 0.0351

Row | Sequence | PBM E-score
151 | ATGCGACA | -0.0309
152 | ACACCCTC | 0.0957
153 | GGCCGGCC | -0.0224
154 | AATCCCGG | -0.0573
155 | GGCAGCAA | 0.113
156 | CTTGCGGC | -0.0202
157 | CTCCAGGC | -0.068
158 | TCACACAA | -0.0548
159 | GAATCTGA | 0.0948
160 | AACGCACG | 0.0104
161 | ACAATTTA | 0.0791
162 | AACTCGGA | 0.0328
163 | AGACGTCA | -0.0882
164 | AAGCACAT | -0.0763
165 | CTTTCCAA | 0.117
166 | AATCGTGT | 0.0587
167 | AAGATGTC | -0.0157
168 | AGTCTTAC | -0.291
169 | ACGTCCGA | -0.138
170 | AGCTTGCA | -0.206
171 | AAGTTTGA | 0.131
172 | CACGAGCC | 0.00897
